Binding data for three molecules are collected here from paper PMC4752221.

Chains of the proteins cited; added tags and fusions are not shown.
UniProt P04456: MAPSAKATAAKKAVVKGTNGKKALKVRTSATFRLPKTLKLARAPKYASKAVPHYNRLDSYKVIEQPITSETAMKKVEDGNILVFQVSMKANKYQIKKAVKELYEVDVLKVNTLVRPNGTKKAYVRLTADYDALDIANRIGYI
UniProt Q3E757: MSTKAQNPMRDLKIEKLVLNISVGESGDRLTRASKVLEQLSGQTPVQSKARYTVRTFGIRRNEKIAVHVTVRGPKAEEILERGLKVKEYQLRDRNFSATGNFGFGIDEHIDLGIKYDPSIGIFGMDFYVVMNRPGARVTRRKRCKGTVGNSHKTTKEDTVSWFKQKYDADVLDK

These are yes or no findings as the source states them, for the method shown. Binding seen in cells or lysates may run through a third protein. Some binding calls cover weakened binding; strength is not graded here. For part of these data: Tags and fused reporters may be left off the sequences shown.

Experiment [1] deals with Rpl25-GFP (S. cerevisiae) (UniProt P04456). Nature of the experiment: co-IP; Rpl25-GFP on GFP-Trap_A beads from pooled polysomal sucrose-gradient fractions of wild type yeast lysate, samples treated with 0.1 mg/ml RNase A; PBSKMT buffer (0.3% Triton-X 100), 4.5 h at 4°C; Western blot.
The target in experiment [2] is Rpl11b-GFP (S. cerevisiae) (UniProt Q3E757). Nature of the experiment: co-IP; GFP-tagged bait on GFP-Trap_A beads from clarified yeast lysate, PBSKMT (0.5% Triton-X 100), 3 h at 4°C, samples treated with 0.2 mg/ml RNase A for 30 min at 4°C; Western blot; in some panels wild type and dbp5 mutant cells after a 1 h temperature shift.
In experiment [3] the target is T1, Mex67-GFP (S. cerevisiae) (UniProt Q99257).
T1 sequence: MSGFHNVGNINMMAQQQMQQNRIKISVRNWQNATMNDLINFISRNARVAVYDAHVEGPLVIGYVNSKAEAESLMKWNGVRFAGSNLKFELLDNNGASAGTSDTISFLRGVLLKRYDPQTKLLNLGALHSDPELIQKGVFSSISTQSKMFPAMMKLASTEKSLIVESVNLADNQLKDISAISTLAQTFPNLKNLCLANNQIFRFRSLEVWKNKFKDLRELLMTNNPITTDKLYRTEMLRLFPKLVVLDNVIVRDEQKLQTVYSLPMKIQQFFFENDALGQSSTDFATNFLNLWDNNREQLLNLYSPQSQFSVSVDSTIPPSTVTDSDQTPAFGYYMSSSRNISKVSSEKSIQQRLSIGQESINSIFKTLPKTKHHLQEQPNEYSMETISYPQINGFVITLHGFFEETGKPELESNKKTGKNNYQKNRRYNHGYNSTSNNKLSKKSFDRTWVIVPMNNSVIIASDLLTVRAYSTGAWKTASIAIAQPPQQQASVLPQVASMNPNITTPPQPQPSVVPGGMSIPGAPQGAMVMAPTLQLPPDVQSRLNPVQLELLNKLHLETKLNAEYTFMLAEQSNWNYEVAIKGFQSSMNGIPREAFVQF
The description is as above.

B1: Aco1 (protein, UniProt P19414 17-778)
chain: ATVSNLTRDSKVNQNLLEDHSFINYKQNVETLDIVRKRLNRPFTYAEKILYGHLDDPHGQDIQRGVSYLKLRPDRVACQDATAQMAILQFMSAGLPQVAKPVTVHCDHLIQAQVGGEKDLKRAIDLNKEVYDFLASATAKYNMGFWKPGSGIIHQIVLENYAFPGALIIGTDSHTPNAGGLGQLAIGVGGADAVDVMAGRPWELKAPKILGVKLTGKMNGWTSPKDIILKLAGITTVKGGTGKIVEYFGDGVDTFSATGMGTICNMGAEIGATTSVFPFNKSMIEYLEATGRGKIADFAKLYHKDLLSADKDAEYDEVVEIDLNTLEPYINGPFTPDLATPVSKMKEVAVANNWPLDVRVGLIGSCTNSSYEDMSRSASIVKDAAAHGLKSKTIFTVTPGSEQIRATIERDGQLETFKEFGGIVLANACGPCIGQWDRRDIKKGDKNTIVSSYNRNFTSRNDGNPQTHAFVASPELVTAFAIAGDLRFNPLTDKLKDKDGNEFMLKPPHGDGLPQRGYDAGENTYQAPPADRSTVEVKVSPTSDRLQLLKPFKPWDGKDAKDMPILIKAVGKTTTDHISMAGPWLKYRGHLENISNNYMIGAINAENKKANCVKNVYTGEYKGVPDTARDYRDQGIKWVVIGDENFGEGSSREHAALEPRFLGGFAIITKSFARIHETNLKKQGLLPLNFKNPADYDKINPDDRIDILGLAELAPGKPVTMRVHPKNGKPWDAVLTHTFNDEQIEWFKYGSALNKIKADEKK
Regarding B1, the binding result in experiment [1] and in experiment [2] was “no binding” in each case.

B2: Rps3 (protein, UniProt P05750 1-240)
chain: MVALISKKRKLVADGVFYAELNEFFTRELAEEGYSGVEVRVTPTKTEVIIRATRTQDVLGENGRRINELTLLVQKRFKYAPGTIVLYAERVQDRGLSAVAQAESMKFKLLNGLAIRRAAYGVVRYVMESGAKGCEVVVSGKLRAARAKAMKFADGFLIHSGQPVNDFIDTATRHVLMRQGVLGIKVKIMRDPAKSRTGPKALPDAVTIIEPKEEEPILAPSVKDYRPAEETEAQAEPVEA
On to B2, for which the binding entry in experiment [1], in experiment [3] and in experiment [2] was “binds” throughout.

B3: Rpl35 (protein, UniProt P0CX84 1-120)
chain: MAGVKAYELRTKSKEQLASQLVDLKKELAELKVQKLSRPSLPKIKTVRKSIACVLTVINEQQREAVRQLYKGKKYQPKDLRAKKTRALRRALTKFEASQVTEKQRKKQIAFPQRKYAIKA
B3: the binding result in experiment [3] is “binds”.
